{"source": "paper PMC4336329", "about": "(PLoS ONE, 2015)", "note": "Among all 310,000 compounds or so, about 14,000 (4.5%) showed an effect of 50% or more. Effects have a minus sign here. The list shows a part of the results.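 Further: peak tail current of the secondary pulse compared with the same well before compound.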", "data": [{"target": "human ether-à-go-go-related gene (hERG) potassium channel (human, UniProt Q12809)", "sequence (Q12809 whole entry, looked up)": "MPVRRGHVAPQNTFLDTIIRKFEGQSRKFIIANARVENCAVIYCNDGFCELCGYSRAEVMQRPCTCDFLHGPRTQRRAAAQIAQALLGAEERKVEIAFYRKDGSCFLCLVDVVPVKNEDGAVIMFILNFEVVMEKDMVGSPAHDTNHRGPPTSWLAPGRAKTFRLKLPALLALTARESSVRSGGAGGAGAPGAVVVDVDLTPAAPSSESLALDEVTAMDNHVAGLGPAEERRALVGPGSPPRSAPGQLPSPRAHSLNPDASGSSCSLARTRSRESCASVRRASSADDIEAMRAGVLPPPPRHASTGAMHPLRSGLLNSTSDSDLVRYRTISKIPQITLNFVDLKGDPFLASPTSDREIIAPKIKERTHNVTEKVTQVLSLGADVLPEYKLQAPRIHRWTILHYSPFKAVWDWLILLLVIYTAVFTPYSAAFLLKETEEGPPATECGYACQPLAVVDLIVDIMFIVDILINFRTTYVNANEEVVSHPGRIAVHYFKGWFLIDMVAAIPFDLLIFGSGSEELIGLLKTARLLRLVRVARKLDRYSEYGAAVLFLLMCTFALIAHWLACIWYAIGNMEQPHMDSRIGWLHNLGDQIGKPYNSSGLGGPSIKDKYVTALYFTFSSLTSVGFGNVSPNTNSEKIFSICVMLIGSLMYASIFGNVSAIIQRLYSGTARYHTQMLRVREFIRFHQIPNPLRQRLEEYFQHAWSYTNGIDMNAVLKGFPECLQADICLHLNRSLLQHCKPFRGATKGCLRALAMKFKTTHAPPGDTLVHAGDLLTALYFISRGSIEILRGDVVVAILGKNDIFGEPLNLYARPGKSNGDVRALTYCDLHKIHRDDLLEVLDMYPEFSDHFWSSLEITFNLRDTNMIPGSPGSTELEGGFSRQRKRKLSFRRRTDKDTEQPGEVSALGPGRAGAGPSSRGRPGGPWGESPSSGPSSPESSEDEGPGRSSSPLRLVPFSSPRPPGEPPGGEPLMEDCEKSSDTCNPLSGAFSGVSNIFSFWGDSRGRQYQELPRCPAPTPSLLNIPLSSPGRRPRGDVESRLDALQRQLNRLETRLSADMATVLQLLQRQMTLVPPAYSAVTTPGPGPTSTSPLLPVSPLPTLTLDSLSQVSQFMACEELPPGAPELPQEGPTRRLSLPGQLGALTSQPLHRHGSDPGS", "experiment": "primary screen, population patch clamp on CHO cells stably expressing hERG", "units": {"hERG current change (%, negative = inhibition) at 10uM": "%"}, "values": [{"molecule": "O=C(N/N=C/c1coc2ccccc2c1=O)c1cccc([N+](=O)[O-])c1", "hERG current change (%, negative = inhibition) at 10uM": 26.8}, {"molecule": "O=C(NCc1ccco1)C1CCN(S(=O)(=O)c2ccccc2C(F)(F)F)CC1", "hERG current change (%, negative = inhibition) at 10uM": -10.5}, {"molecule": "O=C1C2CC=CCC2C(=O)N1c1n[nH]c(-c2ccccc2)n1", "note": "(centres unmarked)", "hERG current change (%, negative = inhibition) at 10uM": -8.69}, {"molecule": "CCOC(=O)C1=c2s/c(=C\\c3cccnc3)c(=O)n2C(N)=C(C(=O)OC)C1c1cccnc1", "note": "(centres unmarked)", "hERG current change (%, negative = inhibition) at 10uM": 14.7}, {"molecule": "NC(=O)Cc1ccc(C(=O)c2ccc(F)cc2)s1", "hERG current change (%, negative = inhibition) at 10uM": 31.3}, {"molecule": "Oc1ccc(Cl)cc1Nc1nc(NCC2CCCO2)c2ccccc2n1", "note": "(centres unmarked)", "hERG current change (%, negative = inhibition) at 10uM": 23}, {"molecule": "C/C(=N\\NC(=O)c1nnn(-c2nonc2N)c1CN(C)c1ccccc1)c1ccc(O)cc1", "hERG current change (%, negative = inhibition) at 10uM": 6.58}, {"molecule": "Cc1cccc2c(=O)cc(C)n(CC(N)=O)c12", "hERG current change (%, negative = inhibition) at 10uM": 7.6}, {"molecule": "COc1ccc(C(=O)NC(C)c2nnc(SCc3ccc(Cl)c(Cl)c3)n2C)cc1", "note": "(centres unmarked)", "hERG current change (%, negative = inhibition) at 10uM": 7.24}, {"molecule": "Cc1sc2ncn(CC(=O)N3CCC4(CC3)OCCO4)c(=O)c2c1C", "hERG current change (%, negative = inhibition) at 10uM": 9.55}, {"molecule": "CC1(C)N=C(N)N=C(N)N1c1ccc(Oc2ccc(Cl)cc2)c(Cl)c1.Cl", "hERG current change (%, negative = inhibition) at 10uM": -4.13}, {"molecule": "O=C1CCCN1CCCNC(=S)Nc1ccccc1Cl", "hERG current change (%, negative = inhibition) at 10uM": 14.1}, {"molecule": "CCc1nnc(NC(=O)CSc2nnc3c(n2)[nH]c2ccccc23)s1", "hERG current change (%, negative = inhibition) at 10uM": -22.4}, {"molecule": "C=CCN(CC=C)Cc1c(O)ccc2c(=O)c(-c3ccccc3)coc12", "hERG current change (%, negative = inhibition) at 10uM": -16.9}, {"molecule": "COc1ccc(C(=O)N2CCCC(C(=O)c3ccccc3OC)C2)cc1OC", "note": "(centres unmarked)", "hERG current change (%, negative = inhibition) at 10uM": -4.99}, {"molecule": "CCN(CCCNC(=O)c1[nH]c(C)c(C(C)=O)c1C)c1ccccc1", "hERG current change (%, negative = inhibition) at 10uM": -9.9}, {"molecule": "O=C(Cn1cnc2ccccc21)Nc1cccc(S(=O)(=O)N2CCCC2)c1", "hERG current change (%, negative = inhibition) at 10uM": 9.9}, {"molecule": "COc1ccc(/C=N/n2c(=O)[nH]c3c([nH]c4ccc(Cl)cc43)c2=O)cc1CN1CCCCC1", "hERG current change (%, negative = inhibition) at 10uM": -13}, {"molecule": "Cc1cc(NS(=O)(=O)c2ccc(NC(=O)/C=C/c3ccccc3Cl)cc2)no1", "hERG current change (%, negative = inhibition) at 10uM": 18.9}, {"molecule": "COc1ccc(S(=O)(=O)N2CCN(CC(=O)Nc3cccc(OC)c3)CC2)cc1", "hERG current change (%, negative = inhibition) at 10uM": -31.4}, {"molecule": "CC(C)(C)NC(=O)c1c(F)c(F)c(F)c(F)c1F", "hERG current change (%, negative = inhibition) at 10uM": 11.1}, {"molecule": "COc1ccc(-c2noc(CSc3nc(-c4ccccc4)cc(=O)[nH]3)n2)cc1", "hERG current change (%, negative = inhibition) at 10uM": 9.68}, {"molecule": "COc1ccc(N(C(=O)c2ccc(Cl)cc2)C2=CC3CCC(C2)N3C)cc1.Cl", "note": "(centres unmarked)", "hERG current change (%, negative = inhibition) at 10uM": -82}, {"molecule": "COc1ccc(NC(=O)N2CCCC2C(=O)Nc2ccccc2F)cc1", "note": "(centres unmarked)", "hERG current change (%, negative = inhibition) at 10uM": 6.62}, {"molecule": "O=C(Nc1ccc(F)cc1)c1ccc(COc2ccccc2)cc1", "hERG current change (%, negative = inhibition) at 10uM": -5.29}, {"molecule": "CCCCCCCCN[C@H](C)[C@@H](O)c1ccc(SC(C)C)cc1", "hERG current change (%, negative = inhibition) at 10uM": -67.4}, {"molecule": "CCn1c(=O)cc(OCC(=O)NCCCN2CCC(C)CC2)c2ccccc21", "hERG current change (%, negative = inhibition) at 10uM": -8.39}, {"molecule": "Cc1ccc(C(=O)OCC(=O)N(CCc2ccccc2)Cc2ccccc2)cc1S(=O)(=O)N1CCOCC1", "hERG current change (%, negative = inhibition) at 10uM": -15.5}, {"molecule": "Cc1c(C)n(Cc2ccc(F)cc2)c2ccc(C(=O)N3CCN(c4ccccn4)CC3)cc12", "hERG current change (%, negative = inhibition) at 10uM": 9.28}, {"molecule": "CCC(CC)c1nnc(NC(=O)/C=C/c2ccco2)s1", "hERG current change (%, negative = inhibition) at 10uM": 1.91}, {"molecule": "CC(=O)Nc1ccccc1NC(=O)C/C(C)=N/NC(=O)c1cccnc1", "hERG current change (%, negative = inhibition) at 10uM": 11.1}, {"molecule": "CCOc1ccccc1C(=O)NC(C(=O)Nc1ccccc1N1CCOCC1)C(C)C", "note": "(centres unmarked)", "hERG current change (%, negative = inhibition) at 10uM": -24.8}, {"molecule": "C=CCN1C(=O)C2(C(C(=O)OCC)=C(N)Oc3ccccc32)c2c1c1ccccc1oc2=O", "note": "(centres unmarked)", "hERG current change (%, negative = inhibition) at 10uM": -5.52}, {"molecule": "CCS(=O)(=O)Nc1ccc(C(=O)CC2(O)C(=O)Nc3ccccc32)cc1", "note": "(centres unmarked)", "hERG current change (%, negative = inhibition) at 10uM": 14.7}, {"molecule": "CCN1CCN(C(=O)CSc2cc(=O)n(C)c3ccccc23)CC1", "hERG current change (%, negative = inhibition) at 10uM": 4.53}, {"molecule": "CN(C)CCCN(C(=O)c1ccc(C(=O)c2ccccc2)cc1)c1nc2cc3c(cc2s1)OCCO3.Cl", "hERG current change (%, negative = inhibition) at 10uM": -50}, {"molecule": "Cn1cnc2cc(NC(=O)c3cccs3)ccc21", "hERG current change (%, negative = inhibition) at 10uM": 14.6}, {"molecule": "COCC(=O)Nc1cc([N+](=O)[O-])ccc1C", "hERG current change (%, negative = inhibition) at 10uM": 2.06}, {"molecule": "N#Cc1ccc(Oc2ncccn2)cc1", "hERG current change (%, negative = inhibition) at 10uM": 16}, {"molecule": "O=C1OC(c2ccco2)=N/C1=C\\c1ccc(-c2cccc(C(F)(F)F)c2)o1", "hERG current change (%, negative = inhibition) at 10uM": -3.62}, {"molecule": "COc1cc(NC(=O)CSc2c3c(nc4ccccc24)CCC3)cc(OC)c1OC", "hERG current change (%, negative = inhibition) at 10uM": -7.51}, {"molecule": "CCCSc1nnc(CNS(=O)(=O)c2ccc(C)cc2)n1C", "hERG current change (%, negative = inhibition) at 10uM": 8.4}, {"molecule": "O=C(CN1C(=O)C2C3CCC(C3)C2C1=O)OCC(=O)c1ccccc1", "note": "(centres unmarked)", "hERG current change (%, negative = inhibition) at 10uM": 13}, {"molecule": "COc1ccc(NC(=O)CSc2nc3ccccc3c(=O)n2CCCN2CCCCC2)c(OC)c1", "hERG current change (%, negative = inhibition) at 10uM": -65.7}, {"molecule": "O=C(Oc1ccc(F)cc1)c1cccnc1", "hERG current change (%, negative = inhibition) at 10uM": 17.1}, {"molecule": "N#Cc1ccc2ccn(CC(=O)NC3CCCCC3)c2c1", "hERG current change (%, negative = inhibition) at 10uM": 4.53}, {"molecule": "C=CCn1c2c(c(=O)[nH]c1=S)CN(C(C)c1ccccc1)CN2", "note": "(centres unmarked)", "hERG current change (%, negative = inhibition) at 10uM": 21.6}, {"molecule": "CC(=O)NC(CC(=O)c1ccc([N+](=O)[O-])cc1)C(Cl)(Cl)Cl", "note": "(centres unmarked)", "hERG current change (%, negative = inhibition) at 10uM": -18.3}, {"molecule": "Cc1cc(C(=O)CN2C(=O)C(=O)N(C3CCCC3)C2=O)c(C)n1-c1ccc(F)cc1", "hERG current change (%, negative = inhibition) at 10uM": -20.2}, {"molecule": "Cc1nc2ccc(C(=O)Nc3ccc4nc[nH]c4c3)cc2[nH]1", "hERG current change (%, negative = inhibition) at 10uM": 1.95}, {"molecule": "CC(=O)c1ccc(OCCCC(=O)N2CCN(S(=O)(=O)c3cccs3)CC2)cc1", "hERG current change (%, negative = inhibition) at 10uM": -43.4}, {"molecule": "COc1ccccc1NS(=O)(=O)c1cn(C)cn1", "hERG current change (%, negative = inhibition) at 10uM": 18.3}, {"molecule": "Cc1ccc(-c2cc(=O)c3cc(Cl)ccc3[nH]2)cc1", "hERG current change (%, negative = inhibition) at 10uM": 8.68}, {"molecule": "COc1ccc(-c2[nH]c(-c3ccccc3)nc2SCC(=O)NC2CCCC2)cc1", "hERG current change (%, negative = inhibition) at 10uM": -27.5}, {"molecule": "c1csc(-c2nc(-c3ccncc3)no2)c1", "hERG current change (%, negative = inhibition) at 10uM": -1.91}, {"molecule": "COc1ccc(-c2noc(C3CCCN(C(=O)c4ccccc4C)C3)n2)cc1", "note": "(centres unmarked)", "hERG current change (%, negative = inhibition) at 10uM": 8.96}]}]}
